Results: PubChem BioAssay AID504832 (National Center for Advancing Translational Sciences (NCATS), 2011)
In all, about 310,000 compounds went through this assay and about 18,000 (5.8%) were called active. This list was built around the results that the source calls inconclusive (neither active nor inactive); the mix of calls is not that of the screen. Calls follow the shape of the dose curve; as a rule, active = well fitted inhibition curve with a large enough effect; inconclusive = small, poorly fitted or top-dose-only effect, or another doubt; inactive = no such curve, though single readings can be large or run the other way. No potency is given beside an inconclusive call; the fits are too rough.

Assay: Primary qHTS for delayed death inhibitors of the malarial parasite plastid, 48 hour incubation
Conditions: P. falciparum luciferase growth in erythrocytes; series mostly up to 28.7 µM
In short: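 Luminescence readout; reporter = integrated firefly luciferase in P. falciparum. RBC culture at 2% hematocrit, 0.1% parasitemia final, 37 C/5% CO2; decreased signal taken as growth inhibition.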
Potency is read from the fitted curve at half-maximal effect; tags tell the direction and shape of the fitted curve.

| Compound | Potency |
| --- | --- |
| CN(Cc1c(F)cccc1Cl)C(=O)c1cc2ccccc2o1 | inactive |
| COCCn1c(N)c(C(=O)NS(=O)(=O)c2ccc(C)cc2)c(=O)[nH]c1=O | inconclusive [inhibitor, partial curve, poor fit] |
| Cc1ccc(Cn2c(=O)c3ccccc3n3c(CCC(=O)NCCN4CCOCC4)nnc23)cc1 | inconclusive [inhibitor, single point] |
| COCCn1nnnc1C(c1cccs1)N1CCN(c2ccccc2)CC1 (stereo unspecified) | inactive |
| COc1ccc(NC(=O)c2cc(S(=O)(=O)N3CCCCC3)c[nH]2)cc1 | inconclusive [inhibitor, single point] |
| Cn1ncc([N+](=O)[O-])c1C(=O)Nc1nc2ccccc2n1CCN1CCCCC1 | inconclusive [inhibitor, single point] |
| OC(c1ccccc1)C(CN1CCOCC1)c1ccccc1 (stereo unspecified) | inconclusive [inhibitor, partial curve] |
| CCOc1cc(NC(=S)Nc2ccc(Cl)cc2)c(OCC)cc1NC(C)=O | inconclusive [inhibitor, single point] |
| CC(C)c1ccccc1N=C1SCCCN1C(=O)c1cccc(N2C(=O)CCC2=O)c1 | inconclusive [inhibitor, single point] |
| CC1CCCC(NC(=O)C2CCN(S(=O)(=O)N3CCCCC3)CC2)C1C (stereo unspecified) | inconclusive [inhibitor, full curve, poor fit] |
| COC(=O)CNC(=O)COC(=O)Cc1ccc(Cl)cc1 | inconclusive [inhibitor, single point] |
| CC1C(=O)N2CCCc3cc(S(=O)(=O)N(C)CCC#N)cc1c32 (stereo unspecified) | inactive |
| CCOc1ccc(S(=O)(=O)N(CC(=O)NCc2ccncc2)c2ccc(C)cc2)cc1 | inactive |
| COc1cccc(NC(=O)COC(=O)CC(NC(N)=O)c2ccc(Cl)cc2)c1 (stereo unspecified) | inactive |
| O=S(=O)(Nc1ncccn1)c1ccc(NC(=S)Nc2ccc(Cl)cc2)cc1 | inconclusive [inhibitor, partial curve] |
| O=C(NC1CCCCC1)C(c1cccnc1)N(C(=O)CCl)c1ccccc1Cl (stereo unspecified) | inconclusive [inhibitor, single point] |
| CCC/C=C(\CCC)C(NC(=O)Cc1ccccc1)c1ccc(C(=O)OC)cc1 (stereo unspecified) | inconclusive [inhibitor, single point] |
| CCC(CO)n1c(=S)[nH]c2cc(OC)c(OC)cc2c1=O (stereo unspecified) | inactive |
| CC1CCN(C(=O)c2cc(S(=O)(=O)N3CCOCC3)ccc2N2CCCC2)CC1 | inconclusive [inhibitor, single point] |
| COC(=O)c1ccc(NC(=O)COC(=O)C2CC(=O)N(Cc3ccccc3)C2)cc1 (stereo unspecified) | inactive |
| Cc1nc2cc(-c3cccc(F)c3)nn2c(C)c1CCC(=O)NC(C)c1ccc2c(c1)OCCO2 (stereo unspecified) | inconclusive [inhibitor, partial curve, poor fit] |

| Compound | Potency |
| --- | --- |
| O=C(Nc1cccc(NC(=O)C2C3CC4OC(=O)C2C4C3)c1)c1ccccc1 (stereo unspecified) | inconclusive [inhibitor, partial curve, poor fit] |
| COc1ccc(C2Cc3ccccc3C(=O)O2)cc1 (stereo unspecified) | inactive |
| CCc1nnc(NS(=O)(=O)c2ccc(NC(=S)NC(=O)c3ccc(F)cc3)cc2)s1 | inactive |
| Cc1cccc(-n2nnnc2-c2cnccc2C(F)(F)F)c1C | inconclusive [inhibitor, partial curve, poor fit] |
| Cc1c(Cl)cccc1-n1c(SCC(=O)NCc2cccs2)nnc1-c1ccncc1 | inconclusive [inhibitor, full curve, poor fit] |
| CCN(CC)S(=O)(=O)c1ccc(Cl)c(NC2=NCCCCC2)c1 | inconclusive [inhibitor, partial curve] |
| COC(=O)C1=C(c2ccc(F)cc2OCc2ccccc2)C[C@@H]2CC[C@H]1N2C(=O)NCc1ccc2[nH]ccc2c1 | inconclusive [inhibitor, partial curve] |
| CCc1noc(C)c1C(=O)N1CCCC(C(=O)c2ccc(OC)c(F)c2)C1 (stereo unspecified) | inconclusive [inhibitor, partial curve, poor fit] |
| Cc1ccc(Cl)cc1N1CCN(C(=O)CCCn2c(=O)c3cccn3c3cccnc32)CC1 | inconclusive [inhibitor, partial curve] |
| O=C1N(Cc2ccccc2)c2ccccc2C12OCCO2 | inactive |
| O=C(O)c1ccccc1NS(=O)(=O)c1cccc(-n2sc3ccccc3c2=O)c1 | inconclusive [inhibitor, full curve] |
| COc1ccc(N=C2S/C(=C\c3cc(C)n(C)c3C)C(=O)N2C)cc1 | inconclusive [inhibitor, single point] |
| C=CCN(c1ccccc1)S(=O)(=O)c1cccc(C(=O)Nc2ccncc2)c1 | inconclusive [inhibitor, single point] |
| O=CN/N=C/c1c(O)ccc2ccccc12 | inconclusive [inhibitor, single point] |
| O=C(COc1ccc([N+](=O)[O-])cc1)NNC(=O)Nc1ccc([N+](=O)[O-])cc1 | inconclusive [inhibitor, single point] |
| COc1cc([C@H]2c3c(cc(OC)c(O)c3OC)C[C@@H](CO)[C@@H]2CO[C@@H]2O[C@H](CO)[C@@H](O)[C@H](O)[C@H]2O)cc(OC)c1O | inactive |
| Cc1cc(NC(=O)CCC(=O)N(CC(=O)NCC2CCCO2)c2ccc(F)c(Cl)c2)no1 (stereo unspecified) | inactive |
| Cc1nc(SCC(N)=O)[nH]c(=O)c1Cc1ccc(OC(C)C)cc1 | inconclusive [inhibitor, partial curve, poor fit] |
| CC(=O)Nc1ccc2oc(C)nc2c1 | inconclusive [inhibitor, partial curve, poor fit] |
| CCOc1ccc(/C=N/NC(=O)COc2ccccc2-c2ccccc2)cc1 | inconclusive [inhibitor, single point] |
